# Measured values reported in the supplement of paper PMC4604168 (melanoma cell lines).
# This is one part of the list. Most values come without repeats; read them as rough.
# How the values were obtained:
# Test in all cases: cell count relative to DMSO control; melanoma cells; higher = more viable cells
# Details in all cases: library dose: standard library concentration; 72 h
# G361 = system: G361
# IPC-298 = system: IPC-298
# IST-MEL1 = system: IST-MEL1
# LB2518-MEL = system: LB2518-MEL
# LOXIMVI = system: LOXIMVI
# MEL-HO = system: MEL-HO
# MZ2-MEL = system: MZ2-MEL
# MeWo = system: MeWo
# RPMI7951 = system: RPMI7951
# RVH-421 = system: RVH-421
# 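Further: cells treated in 1,536-well plates, then fixed and DAPI-stained, with nuclei counted from automated high-throughput microscope images.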
Compound,cell count (G361) [%],cell count (IPC-298) [%],cell count (IST-MEL1) [%],cell count (LB2518-MEL) [%],cell count (LOXIMVI) [%],cell count (MEL-HO) [%],cell count (MZ2-MEL) [%],cell count (MeWo) [%],cell count (RPMI7951) [%],cell count (RVH-421) [%]
"CN1CCN(c2ccc3nc(-c4c(N)c5c(F)cccc5[nH]c4=O)[nH]c3c2)CC1 [Dovitinib] + C=C(c1ccc(C(=O)O)cc1)c1cc2c(cc1C)C(C)(C)CCC2(C)C [Bexarotene] (first compound 0.5 µM, partner dose 10 µM)",71.9,65.6,73.2,67.1,87,70.3,44,59.7,77.9,108
"CNC(=O)c1cc(Oc2ccc(NC(=O)Nc3ccc(Cl)c(C(F)(F)F)c3)cc2)ccn1 [sorafenib] + Oc1nc(-c2ccc(C(F)(F)F)cc2)nc2c1CSCC2 [XAV939] (first compound 2 µM, partner dose 10 µM)",70,87.7,91,104,97.4,86.6,100,79.9,70.6,88.9
"CS(=O)(=O)CCNCc1ccc(-c2ccc3ncnc(Nc4ccc(OCc5cccc(F)c5)c(Cl)c4)c3c2)o1 [lapatinib] + CC(C)(C)c1cnc(CSc2cnc(NC(=O)C3CCNCC3)s2)o1 [SNS-032] (first compound 4 µM, partner dose 0.05 µM)",89.6,94,94.6,72.8,77.4,90.1,63.2,92.2,29.7,86.2
"C[C@@H](Oc1cc(-c2cnn(C3CCNCC3)c2)cnc1N)c1c(Cl)ccc(F)c1Cl [Crizotinib] + Nc1ccn([C@@H]2O[C@H](CO)[C@@H](O)C2(F)F)c(=O)n1 [gemcitabine] (first compound 1 µM, partner dose 0.002 µM)",39.4,57.5,41.7,58.3,129,70.2,85.3,33.7,111,75.7
"CS(=O)(=O)CCNCc1ccc(-c2ccc3ncnc(Nc4ccc(OCc5cccc(F)c5)c(Cl)c4)c3c2)o1 [lapatinib] + COc1cc2c(Oc3ccc4[nH]c(C)cc4c3F)ncnc2cc1OCCCN1CCCC1 [cediranib] (first compound 4 µM, partner dose 2 µM)",9.45,90.5,69.6,76.1,77.6,72.6,77.7,67.1,10,66.7
"C[C@@H](Oc1cc(-c2cnn(C3CCNCC3)c2)cnc1N)c1c(Cl)ccc(F)c1Cl [Crizotinib] + CO[C@H]1C[C@@H]2CC[C@@H](C)[C@@](O)(O2)C(=O)C(=O)N2CCCC[C@H]2C(=O)O[C@H]([C@H](C)C[C@@H]2CC[C@@H](OCCO)[C@H](OC)C2)CC(=O)[C@H](C)/C=C(\C)[C@@H](O)[C@@H](OC)C(=O)[C@H](C)C[C@H](C)/C=C/C=C/C=C/1C [everolimus] (first compound 1 µM, partner dose 0.1 µM)",58.7,74.6,83.2,79.2,134,73.7,89.1,63.5,90.3,80.8
"CS(=O)(=O)CCNCc1ccc(-c2ccc3ncnc(Nc4ccc(OCc5cccc(F)c5)c(Cl)c4)c3c2)o1 [lapatinib] + Cc1cc(N2CCOCC2)cc2[nH]c(-c3c(NC[C@@H](O)c4cccc(Cl)c4)cc[nH]c3=O)nc12 [BMS536924] (first compound 4 µM, partner dose 1 µM)",58,82.8,79.5,74.4,74.2,73.2,63.3,69.7,45.8,77
"CN1CCN(c2ccc3nc(-c4c(N)c5c(F)cccc5[nH]c4=O)[nH]c3c2)CC1 [Dovitinib] + COc1cc2c(Oc3ccc4[nH]c(C)cc4c3F)ncnc2cc1OCCCN1CCCC1 [cediranib] (first compound 0.5 µM, partner dose 2 µM)",36.4,63.9,63.6,50.9,72.5,60.6,40.5,42.8,63,79.7
"CN1CCN(c2ccc3nc(-c4c(N)c5c(F)cccc5[nH]c4=O)[nH]c3c2)CC1 [Dovitinib] + Cc1cc([N+](=O)[O-])ccc1NS(=O)(=O)c1cc(Cl)ccc1Cl [FH535] (first compound 0.5 µM, partner dose 5 µM)",32.5,48.5,43.5,50.3,73.9,54.8,42.9,47.4,85.9,80.4
"CNC(=O)c1cc(Oc2ccc(NC(=O)Nc3ccc(Cl)c(C(F)(F)F)c3)cc2)ccn1 [sorafenib] + CO[C@@H]1[C@H](N(C)C(=O)c2ccccc2)C[C@H]2O[C@]1(C)n1c3ccccc3c3c4c(c5c6ccccc6n2c5c31)C(=O)NC4 [Midostaurin] (first compound 2 µM, partner dose 0.4 µM)",32.4,63.2,65.1,60.7,61.3,65.4,45.1,59.3,33.3,81
"C=CCNC1=C2C[C@@H](C)C[C@H](OC)[C@H](O)[C@@H](C)/C=C(\C)[C@H](OC(N)=O)[C@@H](OC)/C=C\C=C(/C)C(=O)NC(=CC1=O)C2=O [Tanespimycin] + Oc1cc(-c2nc(-c3ccccc3)[nH]c2-c2ccncc2)ccc1Cl [L779450] (first compound 0.01 µM, partner dose 1 µM)",48.1,72.5,74.2,77,125,77.9,90.2,59,21.1,79.7
"C=CCNC1=C2C[C@@H](C)C[C@H](OC)[C@H](O)[C@@H](C)/C=C(\C)[C@H](OC(N)=O)[C@@H](OC)/C=C\C=C(/C)C(=O)NC(=CC1=O)C2=O [Tanespimycin] + COCC[n+]1c2c(n(Cc3cnccn3)c1C)C(=O)c1ccccc1C2=O [YM155] (first compound 0.01 µM, partner dose 0.002 µM)",71.6,45.5,42.2,27.1,55.3,82.8,27.5,28.1,38.1,90.7
"CN1CCN(c2ccc3nc(-c4c(N)c5c(F)cccc5[nH]c4=O)[nH]c3c2)CC1 [Dovitinib] + CCCCCCCCCCCC1=C(O)C(=O)C=C(O)C1=O [Embelin] (first compound 0.5 µM, partner dose 6 µM)",51.8,38.7,47.1,39.3,91.1,53.4,37.6,47.4,58.9,81
"C=CCNC1=C2C[C@@H](C)C[C@H](OC)[C@H](O)[C@@H](C)/C=C(\C)[C@H](OC(N)=O)[C@@H](OC)/C=C\C=C(/C)C(=O)NC(=CC1=O)C2=O [Tanespimycin] + O=C(O)c1ccc(-c2c[nH]c3ncc(-c4ccccc4)cc23)cc1C1CCCC1 [GSK650394] (first compound 0.01 µM, partner dose 0.8 µM)",30.9,78.1,40.6,63.7,92.3,71.4,89.8,35.6,20.4,84.7
"CNC(=O)c1cc(Oc2ccc(NC(=O)Nc3ccc(Cl)c(C(F)(F)F)c3)cc2)ccn1 [sorafenib] + C=C(c1ccc(C(=O)O)cc1)c1cc2c(cc1C)C(C)(C)CCC2(C)C [Bexarotene] (first compound 2 µM, partner dose 10 µM)",60.4,52,42.5,85.2,130,52.1,83.7,74,57.1,63.9
"CNC(=O)c1cc(Oc2ccc(NC(=O)Nc3ccc(Cl)c(C(F)(F)F)c3)cc2)ccn1 [sorafenib] + CC1(C)NC(=O)N(c2ccc([N+](=O)[O-])c(C(F)(F)F)c2)C1=O [nilutamide] (first compound 2 µM, partner dose 5 µM)",77.6,85.4,88.1,84,95.8,98.4,119,93.5,103,106
"CN1CCN(c2ccc3nc(-c4c(N)c5c(F)cccc5[nH]c4=O)[nH]c3c2)CC1 [Dovitinib] + CCN(CC)CCCCNc1ncc2cc(-c3cc(OC)cc(OC)c3)c(NC(=O)NC(C)(C)C)nc2n1 [PD173074] (first compound 0.5 µM, partner dose 0.5 µM)",58.8,80.1,82.8,56.6,84.9,92.8,49.1,67.6,82.6,115
"CN1CCN(c2ccc3nc(-c4c(N)c5c(F)cccc5[nH]c4=O)[nH]c3c2)CC1 [Dovitinib] + CC(C)CCN1c2nc(Nc3cc(F)c(O)c(F)c3)ncc2N(C)C(=O)C1C [BID1870] (first compound 0.5 µM, partner dose 1 µM)",58.9,59.8,66.2,46.1,77.5,66,47.5,50.4,90.3,80.5
"C[C@@H](Oc1cc(-c2cnn(C3CCNCC3)c2)cnc1N)c1c(Cl)ccc(F)c1Cl [Crizotinib] + Oc1cc(-c2nc(-c3ccccc3)[nH]c2-c2ccncc2)ccc1Cl [L779450] (first compound 1 µM, partner dose 1 µM)",54.3,75.2,85.2,72.8,96.1,69.1,77.7,63.8,80.6,57.1
"CS(=O)(=O)CCNCc1ccc(-c2ccc3ncnc(Nc4ccc(OCc5cccc(F)c5)c(Cl)c4)c3c2)o1 [lapatinib] + O=C(O)c1ccc(-c2c[nH]c3ncc(-c4ccccc4)cc23)cc1C1CCCC1 [GSK650394] (first compound 4 µM, partner dose 0.8 µM)",45.1,69.5,69.8,123,91.7,72.5,86.4,59.3,28.1,91.7
"C[C@@H](Oc1cc(-c2cnn(C3CCNCC3)c2)cnc1N)c1c(Cl)ccc(F)c1Cl [Crizotinib] + CC(C)(C)c1cnc(CSc2cnc(NC(=O)C3CCNCC3)s2)o1 [SNS-032] (first compound 1 µM, partner dose 0.05 µM)",103,115,85,67.9,99.9,91.3,103,83.5,20.9,82
